# From PubChem BioAssay AID1645887 (National Center for Advancing Translational Sciences (NCATS), 2021)
# Values joined by “and” are separate entries in the source; they are usually repeats but may differ in a detail not shown here. Equal entries are not always repeated. Out of some 16,000 compounds screened, about 40 (0.2%) were called active. Inconclusive results (about 1%) are left out. The call rests on the fitted dose curve; in most records, active means well fitted activation curve with a large enough effect; inconclusive means small, poorly fitted or top-dose-only effect, or another doubt; inactive means no such curve, though single readings can be large or run the other way. This is one part of the list.
# Biological target: Rap guanine nucleotide exchange factor 4 (Homo sapiens) (UniProt Q8WZA2)
# Assay: Validation qHTS for agonist of cAMP-regulated guanine nucleotide exchange factor 4 (EPAC2);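 further: exchange makes BODIPY-GDP fluorescence drop when released from Rap1B; series mostly up to about 150 µM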
# Details: EPAC2 Rap1B BODIPY-GDP exchange, fluorescence; activation: active compounds read high
# Method in brief: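 Fluorescent exchange assay: 100 nM EPAC2 with 250 nM RAP1B-BODIPY-GDP and 50 uM GDP; compound added, 5 min at room temperature, then read (ex 480/em 540 nm) every 5 min for 30 min. Normalized to 6.5 mM cAMP agonist control.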
# On the % scale 0 is the no-effect control and ±100 the full control effect.
# Chain of UniProt Q8WZA2 (Q8WZA2 whole entry, looked up): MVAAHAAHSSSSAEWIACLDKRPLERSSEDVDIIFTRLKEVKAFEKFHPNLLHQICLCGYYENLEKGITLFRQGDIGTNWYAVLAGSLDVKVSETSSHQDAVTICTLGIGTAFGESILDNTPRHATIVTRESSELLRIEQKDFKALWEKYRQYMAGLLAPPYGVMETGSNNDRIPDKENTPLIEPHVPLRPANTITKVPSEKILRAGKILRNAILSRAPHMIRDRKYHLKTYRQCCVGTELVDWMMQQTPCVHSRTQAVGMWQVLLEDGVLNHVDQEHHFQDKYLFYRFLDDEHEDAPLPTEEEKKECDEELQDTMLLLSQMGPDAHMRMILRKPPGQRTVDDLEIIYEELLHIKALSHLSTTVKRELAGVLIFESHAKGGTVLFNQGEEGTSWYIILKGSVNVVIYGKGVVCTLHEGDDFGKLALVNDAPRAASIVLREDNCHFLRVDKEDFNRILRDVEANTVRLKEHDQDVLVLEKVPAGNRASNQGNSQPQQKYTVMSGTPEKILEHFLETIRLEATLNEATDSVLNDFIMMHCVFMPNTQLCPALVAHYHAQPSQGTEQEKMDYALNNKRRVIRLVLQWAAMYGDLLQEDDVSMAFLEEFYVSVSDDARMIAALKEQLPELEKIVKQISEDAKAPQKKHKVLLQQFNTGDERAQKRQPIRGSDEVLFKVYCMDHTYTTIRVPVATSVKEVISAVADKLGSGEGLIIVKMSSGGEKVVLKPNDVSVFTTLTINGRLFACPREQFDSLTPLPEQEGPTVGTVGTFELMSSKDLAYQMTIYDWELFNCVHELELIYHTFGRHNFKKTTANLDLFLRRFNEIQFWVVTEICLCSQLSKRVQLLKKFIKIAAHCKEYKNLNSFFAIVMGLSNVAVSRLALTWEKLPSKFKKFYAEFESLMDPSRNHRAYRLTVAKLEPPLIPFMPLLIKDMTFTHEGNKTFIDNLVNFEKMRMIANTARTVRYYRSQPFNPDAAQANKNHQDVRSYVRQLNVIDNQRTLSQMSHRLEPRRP
row,Structure (SMILES),activation
1,OC(c1ccccc1)(c1ccccc1)C1CCNCC1,inactive: 6.77%
2,C[C@]12CCC(=O)C=C1CC[C@@H]1[C@@H]2CC[C@]2(C)C(=O)CC[C@@H]12,inactive: 10.5% and inactive: -6.21%
3,CC1=CCCC2C1(C)CCC(C)C2(C)CC/C(C)=C/C[n+]1cn(C)c2c(N)ncnc21 (stereo not given),inactive: -8.02%
4,COCC#CCN1CCCCC1c1cccnc1 (stereo not given),inactive: -2.82%
5,NC(=O)OCCCc1ccccc1,inactive: 7.05%
6,Nc1c(Cl)c(Cl)c(Cl)c(Cl)c1Cl,inactive: 7.68%
7,COc1ccc(NC(=O)N2CCC3(CC2)CCN(C(=O)Oc2ccccc2)CC3)cc1,inactive: -24.5%
8,NC1CCc2cc(O)c(O)cc2C1 (stereo not given),inactive: -6.59% and inactive: -45.4% and inactive: 0.892%
9,CC1CC(O)[C@]2(O)[C@]13CC(=O)OC[C@@]2(C)[C@@](C)(O)C(=O)C3 (stereo not given in full),inactive: -1.91%
10,C[C@]12CCC(=O)C(O)=C1CC[C@@H]1[C@H]3CCC(=O)[C@@]3(C)CC[C@@H]12,inactive: -2.61%
11,CN1CC(CO)=C[C@H]2c3cccc4[nH]cc(c34)C[C@H]21,inactive: 3.48%
12,CN[C@@H]1C[C@H](c2ccc(Cl)c(Cl)c2)c2ccccc21,inactive: -29.8%
13,C[C@H]1CC[C@]2(NC1)O[C@H]1C[C@H]3[C@@H]4CC[C@H]5C[C@@H](O[C@@H]6O[C@H](CO)[C@H](O[C@@H]7O[C@H](CO)[C@@H](O)[C@H](O[C@@H]8OC[C@@H](O)[C@H](O)[C@H]8O)[C@H]7O[C@@H]7O[C@H](CO)[C@@H](O)[C@H](O)[C@H]7O)[C@H](O)[C@H]6O)CC[C@]5(C)[C@H]4CC[C@]3(C)[C@H]1[C@@H]2C,inactive: -8.01%
14,C[N+]1([O-])CCC[C@@H]1c1cccnc1 (stereo not given in full),inactive: -3.18%
15,O=C1CCO1,inactive: -0.0761% and inactive: -2.92%
16,O=C(CCCN1CCC(n2c(=O)[nH]c3ccccc32)CC1)c1ccc(F)cc1,inactive: -18.3%
17,O=C1C2CCN(CC2)C1(CO)CO,inactive: -21.8%
18,CN1CC(CNC(=O)OCc2ccccc2)CC2c3cccc4c3c(cn4C)CC21 (stereo not given),inactive: -11.6%
19,CCC1(CC)C(=O)NC(=O)NC1=O,inactive: -12.5%
20,C[N+]1(C)C2CCC1CC(OC(=O)c1c[nH]c3ccccc13)C2 (stereo not given),inactive: -46.9%
21,N#C/C(=C\c1ccc(O)c(O)c1)C(N)=S,inactive: -14.9% and inactive: -15.3%
22,CC(Cc1cccc(C(F)(F)F)c1)NCCCc1ccccc1 (stereo not given),inactive: -0.603%
23,c1ccc2sc(C3(N4CCCCC4)CCCCC3)cc2c1,inactive: -41.1% and inactive: -2.98% and inactive: -35.5%
24,COc1ccc(CCN)cc1,inactive: -5.77%
25,C(=C\c1ccccc1)/CN1CCN(CCOC(c2ccccc2)c2ccccc2)CC1,inactive: -12.3%

row,Structure (SMILES),activation
1,CC(O)C(C)OC(=O)[C@@H]1C[C@@H]2c3cccc4c3c(cn4C(C)C)C[C@H]2N(C)C1 (stereo not given in full),inactive: 0.0236%
2,COc1ccc(NC(=O)N2CC3(CCN(C(=O)Oc4ccccc4)CC3)C2)cc1,inactive: -3.18%
3,CCc1cc2c(s1)-n1c(C)nnc1CN=C2c1ccccc1Cl,inactive: -29.9%
4,c1cc(CN2CCC3(CCNCC3)CC2)ccn1,inactive: -18.6%
5,O=C(NC(=O)c1c(F)cccc1F)Nc1ccc(Cl)c(Oc2ncc(C(F)(F)F)cc2Cl)c1,inactive: -4.99%
6,CC(=O)OC1C2CCC3C1(CC(O)[C@@]1(O)[C@@H](CC(O)C1(C)C)[C@]3(C)O)C[C@@]2(C)O (stereo not given in full),inactive: 3.7%
7,Ic1cncc(OC[C@@H]2CCN2)c1,inactive: -15.8%
8,COc1ccc(OC)c(C(O)C(C)N)c1 (stereo not given),inactive: -24.4%
9,N#CC(C#N)=NNc1ccc(OC(F)(F)F)cc1,inactive: -54.7%
10,COC(=O)C1=CO[C@@H](C)[C@@H]2CN3CC[C@]4(C(=O)Nc5c4ccc(OC)c5OC)[C@H]3C[C@H]12,inactive: -7.63%
11,CCC(=O)O[C@H]1CC[C@H]2[C@@H]3CCC4=CC(=O)CC[C@]4(C)[C@H]3CC[C@]12C,inactive: -7.22%
12,COc1cccc([C@@]2(O)CCCC[C@@H]2CN(C)C)c1,inactive: -8.31%
13,COC(=O)[C@@H]1[C@H]2CC[C@@H](C[C@H]1OC(=O)c1ccccc1)N2C,inactive: 2.65%
14,C[C@]12CCC3C(CC[C@H]4C[C@H](O)CC[C@]34C)C1CC[C@@H]2C(=O)CO (stereo not given in full),inactive: -13.3%
15,CNC(=O)N(C)c1nnc(C(C)(C)C)s1,inactive: -8.74%
16,CO[C@]12CC[C@@]3(C[C@@H]1[C@](C)(O)C(C)(C)C)[C@@H]1Cc4ccc(O)c5c4[C@@]3(CCN1CC1CC1)[C@H]2O5,inactive: -32.4%
17,CN1CC[C@@]2(CCCN(C(=O)c3ccco3)C2)C1,inactive: -14.5%
18,C=C1C([C@@H](O)C[C@H](C)C2O[C@@]3(CCCCO3)CC[C@H]2C)OC2CC[C@@]3(CC[C@@H](/C=C/[C@@H](C)C4CC(C)=C[C@]5(O4)O[C@H](C[C@@](C)(O)C(=O)O)CCC5O)O3)OC2[C@@H]1O (stereo not given in full),inactive: 0.962%
19,C=CCN1C[C@H](C)N([C@@H](c2ccccc2)c2ccc(C(=O)N(CC)CC)cc2)C[C@H]1C,inactive: -4.87%
20,Oc1ccc2c3c1O[C@H]1c4[nH]c5c(c4C[C@@]4(O)[C@@H](C2)N(CC2CC2)CC[C@]314)C[C@]1(O)[C@H]2Cc3ccc(O)c4c3[C@@]1(CCN2CC1CC1)[C@@H]5O4,inactive: -19.7%
21,c1csc(CN2CC[C@@]3(CCCNC3)C2)n1,inactive: -23.9%
22,C[C@@H]1CN(C2CCC(C#N)(c3ccc(F)cc3)CC2)CC[C@]1(C(=O)O)c1ccccc1 (stereo not given in full),inactive: -12.1%
23,Clc1ccc(COC(Cn2ccnc2)c2ccc(Cl)cc2Cl)c(Cl)c1 (stereo not given),inactive: 7.21% and inactive: -10.1%
24,CN1C2CCC1CC(OC(=O)C1CCC(C(=O)OC3CC4CCC(C3)N4C)(c3ccccc3)c3ccccc31)C2 (stereo not given),inactive: -1.71%
25,NCC(N)C(=O)c1ccccc1 (stereo not given),inactive: -16.2%

row,Structure (SMILES),activation
1,CC(=O)OC1CC[C@@]2(C)C3CC[C@]4(C)C(=O)CCC4C3CC[C@H]2C1 (stereo not given in full),inactive: -25.6%
2,c1ccc2sc(SNC3CCCCC3)nc2c1,inactive: 0.0022%
3,O=C(Nc1cccc(F)c1)N1CC[C@@]2(CCCN(C(=O)Oc3ccccc3)C2)C1,inactive: -17.4%
4,CC(C)(C)[C@]1(O)C[C@@H]2OC(=O)C[C@@]23C(=O)O[C@@H]2OC(=O)[C@H](O)[C@]213,inactive: -6.82%
5,CC(C)(C)c1cc(C=C(C#N)C#N)cc(C(C)(C)C)c1O,inactive: -29.1% and inactive: -5.45% and inactive: -31.1%
6,CC(C)[C@@H]1CN[C@H](C(=O)O)[C@@H]1CC(=O)O,inactive: 6.03%
7,O=[N+]([O-])c1ccc(O[C@@H]2O[C@H](CO)[C@@H](O)[C@H](O)[C@H]2F)c([N+](=O)[O-])c1,inactive: -12.3%
8,O=C(O)c1nn(Cc2ccc(Cl)cc2Cl)c2ccccc12,inactive: -4.99% and inactive: -3.12% and inactive: -54.4%
9,CNCCc1cnc[nH]1,inactive: -20.5% and inactive: 11.6%
10,O=C(O)C(Cl)Cl,inactive: -7.53% and inactive: -3.06%
11,O=C(NC(=O)c1c(F)cccc1F)Nc1ccc(Cl)cc1,inactive: -14.2%
12,C[C@@H]1C[C@@H]([C@H](O)CC2CC(=O)NC(=O)C2)C(=O)[C@@H](C)C1,inactive: -6.15% and inactive: 1.58%
13,CN1C(=O)COc2c(C(=O)N[C@@H]3CN4CCC3CC4)cc(Cl)cc21,inactive: -14.6%
14,COC[C@H]([C@@H](O)[C@@H](O)C(=O)NCC[C@@H](C)c1nc(/C=C/C[C@H]2OC3(C[C@H](O)[C@H]2C)OC([C@@H](C[C@@H](O)[C@@H](C)[C@@H](O)[C@@H](C)/C=C(C)/C(C)=C/C=C/C(C)=C\C#N)OC)[C@@H](OP(=O)(O)O)C3(C)C)co1)N(C)C (stereo not given in full),inactive: -11.1%
15,N#CC(C#N)=Cc1cc(O)c(O)c([N+](=O)[O-])c1,inactive: -7.41%
16,C[C@H](N)C(=O)c1ccccc1,inactive: 12.1% and inactive: -4.64%
17,CCOC(=O)c1ncn2c1[C@@H]1CCCN1C(=O)c1cc(OC)ccc1-2,inactive: -25.1%
18,NC(N)=Nc1ccc2[nH]c3c(c2c1)C[C@@]1(O)[C@H]2Cc4ccc(O)c5c4[C@@]1(CCN2CC1CC1)[C@H]3O5,inactive: -53.2%
19,c1ccc(CN2CC[C@@]3(CCCNC3)C2)cc1,inactive: -1.66%
20,c1cncc(C2CCCN2)c1 (stereo not given),inactive: 8.74%
21,COc1cc([N+](=O)[O-])cc([N+](=O)[O-])c1N,inactive: -23%
22,CCC1(C2=NCCN2)Cc2ccccc2O1 (stereo not given),inactive: 6.18% and inactive: -22.9% and inactive: -12.9%
23,C[C@H]1O[C@@H](O[C@H]2[C@@H](O)C[C@H](O[C@H]3[C@@H](O)C[C@H](O[C@H]4CC[C@]5(C)C6CC[C@]7(C)[C@@H](C8=CC(=O)OC8)CC[C@]7(O)C6CC[C@@H]5C4)O[C@@H]3C)O[C@@H]2C)C[C@H](O)[C@@H]1O (stereo not given in full),inactive: -0.872%
24,COc1cc(C2c3cc4c(c(O)c3CC3COC(=O)C32)OCO4)cc(OC)c1OC (stereo not given),inactive: -20.6%
25,CC[C@@H](CO)NC(=O)[C@@H]1C=C2c3cccc4[nH]cc(c34)C[C@H]2N(C)C1,inactive: -8.79% and inactive: -74.8%
